Laboratory results: US9686988B2, “Pesticidal compounds based on arylthiosulfonamide derivatives” (Syngenta Participations AG, priority 2012, dated 2017)
Some entries share one result that the patent states for a list of compounds.

Experiments:
Assay type in all cases: in vivo
Tetranychus urticae = Tetranychus urticae (two-spotted spider mite), bean leaf disc spray test; conditions: application rate of 200 ppm; mortality (mobile stages) 8 days after infestation; mixed ages
Procedure: Tetranychus urticae (Two-Spotted Spider Mite):
Bean leaf discs on agar in 24-well microtiter plates were sprayed with aqueous test solutions prepared from 10′000 ppm DMSO stock solutions. After drying the leaf discs were infested with a mite population of mixed ages. The samples were assessed for mortality (mobile stages) 8 days after infestation.

Diabrotica balteata = Diabrotica balteata (corn rootworm), sprayed maize sprouts; conditions: application rate of 200 ppm, 4 days after infestation, L2 larvae
Procedure: Diabrotica balteata, (Corn Rootworm)
Maize sprouts, placed on an agar layer in 24-well microtiter plates were treated with aqueous test solutions prepared from 10′000 ppm DMSO stock solutions by spraying. After drying, the plates were infested with L2 larvae (6 to 10 per well). The samples were assessed for mortality 4 days after infestation.

Plutella xylostella = Plutella xylostella (diamond back moth), L2 larvae on artificial diet; conditions: application rate of 200 ppm, mortality and growth inhibition 5 days after infestation
Procedure: Plutella xylostella (Diamond Back Moth):
24-well microtiter plates with artificial diet were treated with aqueous test solutions prepared from 10′000 ppm DMSO stock solutions by pipetting. After drying, the plates were infested with L2 larvae (10 to 15 per well). The samples were assessed for mortality and growth inhibition 5 days after infestation. Control of Plutella xyllostella by a test sample is noted when at least one of mortality and growth inhibition is better than the untreated sample.

Spodoptera littoralis = Spodoptera littoralis (Egyptian cotton leaf worm), cotton leaf disc spray test; conditions: application rate of 200 ppm; mortality, anti-feedant effect, growth inhibition 3 days after infestation; L1 larvae
Procedure: Spodoptera littoralis (Egyptian Cotton Leaf Worm)
Cotton leaf discs were placed on agar in 24-well microtiter plates and sprayed with aqueous test solutions prepared from 10′000 ppm DMSO stock solutions. After drying the leaf discs were infested with five L1 larvae. The samples were assessed for mortality, anti-feedant effect, and growth inhibition 3 days after infestation. Control of Spodoptera littoralis by a test sample is noted when at least one of mortality, anti-feedant effect, and growth inhibition is better than the untreated sample.

Thrips tabaci = Thrips tabaci (onion thrips), sunflower leaf disc spray test; conditions: application rate of 200 ppm; mortality 6 days after infestation; mixed ages
Procedure: Thrips tabaci (Onion Thrips):
Sunflower leaf discs were placed on agar in 24-well microtiter plates and sprayed with aqueous test solutions prepared from 10′000 ppm DMSO stock solutions. After drying the leaf discs were infested with a thrips population of mixed ages. The samples were assessed for mortality 6 days after infestation.

O=S(=O)(CSc1ccc(C2=NO[C@@](c3cc(Cl)cc(Cl)c3)(C(F)(F)F)C2)cc1Br)NC1C[S+]([O-])C1 (stereo partly shown) [Compound C14]
at least 80%: control of Tetranychus urticae (Tetranychus urticae) | mortality of Diabrotica balteata (Diabrotica balteata) | control of Plutella xylostella (Plutella xylostella) | control of Spodoptera littoralis (Spodoptera littoralis) | control of Thrips tabaci (Thrips tabaci)

O=S(=O)(CSc1ccc(C2=NO[C@@](c3cc(Cl)cc(Cl)c3)(C(F)(F)F)C2)cc1Br)NCc1ccccc1 [Compound C6]
at least 80%: mortality of Diabrotica balteata (Diabrotica balteata) | control of Plutella xylostella (Plutella xylostella) | control of Spodoptera littoralis (Spodoptera littoralis) | control of Thrips tabaci (Thrips tabaci)

O=S(=O)(CSc1ccc(C2=NOC(c3cc(Cl)cc(Cl)c3)(C(F)(F)F)C2)cc1Br)N1CC=CCC1 (stereo not shown) [Compound C42]
at least 80%: mortality of Diabrotica balteata (Diabrotica balteata) | control of Plutella xylostella (Plutella xylostella) | control of Spodoptera littoralis (Spodoptera littoralis) | control of Thrips tabaci (Thrips tabaci)

O=S1(=O)CC(NS(=O)(=O)CSc2ccc(C3=NO[C@@](c4cc(Cl)cc(Cl)c4)(C(F)(F)F)C3)cc2Br)C1 [Compound C8]
at least 80%: control of Tetranychus urticae (Tetranychus urticae) | mortality of Diabrotica balteata (Diabrotica balteata) | control of Plutella xylostella (Plutella xylostella) | control of Spodoptera littoralis (Spodoptera littoralis) | control of Thrips tabaci (Thrips tabaci)

O=S(=O)(CSc1ccc(C2=NOC(c3cc(Cl)cc(Cl)c3)(C(F)(F)F)C2)cc1Br)NCc1ccccc1F (stereo not shown) [Compound C33]
at least 80%: mortality of Diabrotica balteata (Diabrotica balteata) | control of Plutella xylostella (Plutella xylostella) | control of Spodoptera littoralis (Spodoptera littoralis) | control of Thrips tabaci (Thrips tabaci)

O=S(=O)(CSc1ccc(C2=NO[C@@](c3cc(Cl)cc(Cl)c3)(C(F)(F)F)C2)cc1Br)NCc1ccccn1 [Compound C11]
at least 80%: control of Tetranychus urticae (Tetranychus urticae) | mortality of Diabrotica balteata (Diabrotica balteata) | control of Plutella xylostella (Plutella xylostella) | control of Spodoptera littoralis (Spodoptera littoralis) | control of Thrips tabaci (Thrips tabaci)

O=S(=O)(CSc1ccc(C2=NOC(c3cc(Cl)cc(Cl)c3)(C(F)(F)F)C2)cc1Br)N1CCOCC1 (stereo not shown) [Compound C54]
at least 80%: control of Tetranychus urticae (Tetranychus urticae) | mortality of Diabrotica balteata (Diabrotica balteata) | control of Plutella xylostella (Plutella xylostella) | control of Spodoptera littoralis (Spodoptera littoralis) | control of Thrips tabaci (Thrips tabaci)

O=S(=O)(CSc1ccc(C2=NO[C@@](c3cc(Cl)cc(Cl)c3)(C(F)(F)F)C2)cc1Br)NCC1CC1 [Compound C20]
at least 80%: control of Tetranychus urticae (Tetranychus urticae) | mortality of Diabrotica balteata (Diabrotica balteata) | control of Plutella xylostella (Plutella xylostella) | control of Spodoptera littoralis (Spodoptera littoralis) | control of Thrips tabaci (Thrips tabaci)

CSCC(C)(C)NS(=O)(=O)CSc1ccc(C2=NO[C@@](c3cc(Cl)cc(Cl)c3)(C(F)(F)F)C2)cc1Br [Compound C13]
at least 80%: mortality of Diabrotica balteata (Diabrotica balteata) | control of Plutella xylostella (Plutella xylostella) | control of Spodoptera littoralis (Spodoptera littoralis)

CSCCNS(=O)(=O)CSc1ccc(C2=NOC(c3cc(Cl)cc(Cl)c3)(C(F)(F)F)C2)cc1Br (stereo not shown) [Compound C31]
at least 80%: control of Tetranychus urticae (Tetranychus urticae) | mortality of Diabrotica balteata (Diabrotica balteata) | control of Plutella xylostella (Plutella xylostella) | control of Spodoptera littoralis (Spodoptera littoralis) | control of Thrips tabaci (Thrips tabaci)

CC1CCN(S(=O)(=O)CSc2ccc(C3=NOC(c4cc(Cl)cc(Cl)c4)(C(F)(F)F)C3)cc2Br)CC1 (stereo not shown) [Compound C45]
at least 80%: mortality of Diabrotica balteata (Diabrotica balteata) | control of Plutella xylostella (Plutella xylostella) | control of Spodoptera littoralis (Spodoptera littoralis) | control of Thrips tabaci (Thrips tabaci)

O=S(=O)(CSc1ccc(C2=NO[C@@](c3cc(Cl)cc(Cl)c3)(C(F)(F)F)C2)cc1Br)NCc1ccc(Cl)nc1 [Compound C9]
at least 80%: mortality of Diabrotica balteata (Diabrotica balteata) | control of Plutella xylostella (Plutella xylostella) | control of Spodoptera littoralis (Spodoptera littoralis) | control of Thrips tabaci (Thrips tabaci)

COc1ccc(CNS(=O)(=O)CSc2ccc(C3=NOC(c4cc(Cl)cc(Cl)c4)(C(F)(F)F)C3)cc2Br)cc1 (stereo not shown) [Compound C34]
at least 80%: mortality of Diabrotica balteata (Diabrotica balteata) | control of Plutella xylostella (Plutella xylostella) | control of Spodoptera littoralis (Spodoptera littoralis) | control of Thrips tabaci (Thrips tabaci)

CCC(CC)NS(=O)(=O)CSc1ccc(C2=NOC(c3cc(Cl)cc(Cl)c3)(C(F)(F)F)C2)cc1Br (stereo not shown) [Compound C29]
at least 80%: mortality of Diabrotica balteata (Diabrotica balteata) | control of Plutella xylostella (Plutella xylostella) | control of Spodoptera littoralis (Spodoptera littoralis) | control of Thrips tabaci (Thrips tabaci)

O=S(=O)(CSc1ccc(C2=NOC(c3cc(Cl)cc(Cl)c3)(C(F)(F)F)C2)cc1Br)N1CCCCCC1 (stereo not shown) [Compound C48]
at least 80%: control of Tetranychus urticae (Tetranychus urticae) | mortality of Diabrotica balteata (Diabrotica balteata) | control of Plutella xylostella (Plutella xylostella) | control of Thrips tabaci (Thrips tabaci)

CC(NS(=O)(=O)CSc1ccc(C2=NO[C@@](c3cc(Cl)cc(Cl)c3)(C(F)(F)F)C2)cc1Br)c1ccccc1 (stereo partly shown) [Compound C7]
at least 80%: mortality of Diabrotica balteata (Diabrotica balteata) | control of Plutella xylostella (Plutella xylostella) | control of Spodoptera littoralis (Spodoptera littoralis) | control of Thrips tabaci (Thrips tabaci)

O=S(=O)(CSc1ccc(C2=NO[C@@](c3cc(Cl)cc(Cl)c3)(C(F)(F)F)C2)cc1Br)NC1CCCC1 [Compound C21]
at least 80%: control of Tetranychus urticae (Tetranychus urticae) | mortality of Diabrotica balteata (Diabrotica balteata) | control of Plutella xylostella (Plutella xylostella) | control of Spodoptera littoralis (Spodoptera littoralis) | control of Thrips tabaci (Thrips tabaci)

CC(C)CN(C)S(=O)(=O)CSc1ccc(C2=NOC(c3cc(Cl)cc(Cl)c3)(C(F)(F)F)C2)cc1Br (stereo not shown) [Compound C46]
at least 80%: mortality of Diabrotica balteata (Diabrotica balteata) | control of Plutella xylostella (Plutella xylostella) | control of Spodoptera littoralis (Spodoptera littoralis) | control of Thrips tabaci (Thrips tabaci)

O=S(=O)(CSc1ccc(C2=NOC(c3cc(Cl)cc(Cl)c3)(C(F)(F)F)C2)cc1Br)N1CC=CC1 (stereo not shown) [Compound C43]
at least 80%: control of Tetranychus urticae (Tetranychus urticae) | mortality of Diabrotica balteata (Diabrotica balteata) | control of Plutella xylostella (Plutella xylostella) | control of Spodoptera littoralis (Spodoptera littoralis) | control of Thrips tabaci (Thrips tabaci)

O=S(=O)(CSc1ccc(C2=NO[C@@](c3cc(Cl)cc(Cl)c3)(C(F)(F)F)C2)cc1Br)Nc1cccc(F)c1 [Compound C10]
at least 80%: mortality of Diabrotica balteata (Diabrotica balteata) | control of Plutella xylostella (Plutella xylostella) | control of Spodoptera littoralis (Spodoptera littoralis)

O=S(=O)(CSc1ccc(C2=NOC(c3cc(Cl)cc(Cl)c3)(C(F)(F)F)C2)cc1Br)N1CCCCC1 (stereo not shown) [Compound C51]
at least 80%: mortality of Diabrotica balteata (Diabrotica balteata) | control of Plutella xylostella (Plutella xylostella) | control of Spodoptera littoralis (Spodoptera littoralis) | control of Thrips tabaci (Thrips tabaci)

C#CCN(C)S(=O)(=O)CSc1ccc(C2=NOC(c3cc(Cl)cc(Cl)c3)(C(F)(F)F)C2)cc1Br (stereo not shown) [Compound C56]
at least 80%: mortality of Diabrotica balteata (Diabrotica balteata) | control of Plutella xylostella (Plutella xylostella) | control of Spodoptera littoralis (Spodoptera littoralis) | control of Thrips tabaci (Thrips tabaci)

COCC(C)NS(=O)(=O)CSc1ccc(C2=NO[C@@](c3cc(Cl)cc(Cl)c3)(C(F)(F)F)C2)cc1Br (stereo partly shown) [Compound C2]
at least 80%: mortality of Diabrotica balteata (Diabrotica balteata) | control of Plutella xylostella (Plutella xylostella) | control of Spodoptera littoralis (Spodoptera littoralis) | control of Thrips tabaci (Thrips tabaci)

N#CC1(NS(=O)(=O)CSc2ccc(C3=NOC(c4cc(Cl)cc(Cl)c4)(C(F)(F)F)C3)cc2Br)CC1 (stereo not shown) [Compound C49]
at least 80%: mortality of Diabrotica balteata (Diabrotica balteata) | control of Plutella xylostella (Plutella xylostella) | control of Spodoptera littoralis (Spodoptera littoralis) | control of Thrips tabaci (Thrips tabaci)

Cc1cc(NS(=O)(=O)CSc2ccc(C3=NOC(c4cc(Cl)cc(Cl)c4)(C(F)(F)F)C3)cc2Br)n(C)n1 (stereo not shown) [Compound C35]
at least 80%: mortality of Diabrotica balteata (Diabrotica balteata) | control of Spodoptera littoralis (Spodoptera littoralis)

O=S(=O)(CSc1ccc(C2=NO[C@@](c3cc(Cl)cc(Cl)c3)(C(F)(F)F)C2)cc1Br)Nc1ccc(F)cc1 [Compound C17]
at least 80%: mortality of Diabrotica balteata (Diabrotica balteata) | control of Plutella xylostella (Plutella xylostella) | control of Spodoptera littoralis (Spodoptera littoralis)

O=S(=O)(CSc1ccc(C2=NOC(c3cc(Cl)cc(Cl)c3)(C(F)(F)F)C2)cc1Br)NCc1ccc(C(F)(F)F)cc1 (stereo not shown) [Compound C24]
at least 80%: mortality of Diabrotica balteata (Diabrotica balteata) | control of Spodoptera littoralis (Spodoptera littoralis)
